About 180 (0.12%) of roughly 150,000 compounds were called active. The inconclusive results got no clear call from the source; some entries with a clear call stand among them for comparison. The call rests on the fitted dose curve; in most records, active means well fitted cell-killing curve with a large enough effect; inconclusive means small, poorly fitted or top-dose-only effect, or effect the other way; inactive means flat fitted curve, though single readings scatter. Where the call is inconclusive, the potency comes from a doubtful curve fit.
test: GF-AFC viability counterscreen for inhibitors of alpha-synuclein gene (SNCA) expression; details: HEK-293-SNCA-luc viability, GF-AFC fluorescence, 24 h; activity change, negative = cytotoxicity: at 57.1 µM (top of the series) unless noted; further: nearly all actives have a fitted effect of over 30% in size;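 on activity change, negative = cytotoxicity: 0% = DMSO-treated cells and -100% = medium-only wells without cells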
Method in brief: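 Cytotoxicity counterscreen: after 24 h compound treatment of genome-edited SNCA-luciferase HEK-293 cells, live-cell protease substrate GF-AFC read by fluorescence after 30 min; activity scaled between DMSO (0%) and medium-only (-100%), curves Hill-fitted.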
Potency means the concentration at half of the fitted maximal effect; tags describe the fitted curve by direction and shape.

| SMILES | Potency | activity change, negative = cytotoxicity |
| --- | --- | --- |
| O=c1c(-c2ccc(Cl)cc2)nc2cnc(N3CCOCC3)nc2n1-c1ccccc1 | inconclusive: 8.91 µM [rising, partial curve] |  |
| COCCNC(=O)[C@@H]1C[C@H](Oc2cccnc2)CN1C(=O)c1ccc(OC)cc1OC | inconclusive: 3.16 µM [cytotoxic, full curve] |  |
| COc1ccc(CCNC(=O)CN(c2cc(C(F)(F)F)ccc2Cl)S(C)(=O)=O)cc1 | inconclusive: 1.78 µM [rising, full curve, poor fit] |  |
| O=C(NC1CCN(c2cc(-c3ccc(F)cc3)[nH]n2)C1)c1cccc(Cl)c1 (configuration not stated) | inconclusive: 31.6 µM [cytotoxic, single point] |  |
| O=C(Nc1ccc(F)cc1F)C1(CCO)CCN(c2ncccn2)C1 (configuration not stated) | inactive |  |
| Nc1nc(NCC2CCC(CNS(=O)(=O)c3cccc4ccccc34)CC2)nc2ccccc12 (configuration not stated) | inconclusive: 37.7 µM [cytotoxic, single point] |  |
| CC(=O)Nc1ccc(C2Nc3c(C)cc(C)cc3-c3cc(C)nn32)cc1 (configuration not stated) | inconclusive: 10 µM [rising, partial curve] |  |
| COC[C@@H]1CN(Cc2ccc(OC)cc2OC)C[C@H]1c1nc(C)no1 | inactive |  |
| Cc1cccc(-c2cccc(CN3CCC(N[S+](=O)([O-])c4cccs4)CC3)c2)c1 | inactive |  |
| O=C(NC1CCN(c2cc(-c3cccs3)[nH]n2)CC1)c1ccc(F)c(Cl)c1 | inconclusive: 28.2 µM [cytotoxic, single point] |  |
| Cc1ccc(C)c(N2CCN(c3cc(C)nc4c(-c5ccc(Cl)cc5)c(C)nn34)CC2)c1 | inconclusive: 39.8 µM [cytotoxic, single point] |  |
| COc1ccc(CCNC(=O)c2cc(-c3ccccc3OC)c3nncn3n2)cc1 | inactive |  |
| O=C(NCCSc1c(-c2ccc(F)cc2)[nH]c2ccccc12)c1ccc(S(=O)(=O)N2CCOCC2)cc1 | inconclusive: 39.8 µM [cytotoxic, single point] |  |
| Cc1nc([C@H]2CCN(Cc3ccc(F)cc3F)C[C@H]2NC(=O)C2CCOCC2)n[nH]1 |  | inactive: 8.59% [at 12.5 µM] |
| Cn1c(=O)c2c(nc(NCc3ccccc3)n2Cc2ccccc2Cl)n(C)c1=O | inconclusive: 12.6 µM [rising, partial curve, poor fit] |  |
| Cc1cccc2c(=O)cc(CSc3ccccc3NC(=O)c3cccc(F)c3)[nH]c12 | inconclusive: 10 µM [cytotoxic, partial curve, poor fit] |  |
| Cc1ccc(C(=O)N(CCCN)[C@@H](c2oc3cc(Cl)ccc3c(=O)c2Cc2ccccc2)C(C)C)cc1 | inconclusive: 10.8 µM [cytotoxic, partial curve, poor fit] |  |

From PubChem BioAssay AID1671193 (National Center for Advancing Translational Sciences (NCATS), 2021)
